# Test results: the supplement of paper PMC3334620
# The full ranking holds about 33,000 sequences; the median of “E-score (-0.5 to 0.5)” is about -0.043, and the highest 2% start at about 0.37. This is one part of the list.
# Target: T1, Upc2 (UniProt Q12151)
# T1 sequence: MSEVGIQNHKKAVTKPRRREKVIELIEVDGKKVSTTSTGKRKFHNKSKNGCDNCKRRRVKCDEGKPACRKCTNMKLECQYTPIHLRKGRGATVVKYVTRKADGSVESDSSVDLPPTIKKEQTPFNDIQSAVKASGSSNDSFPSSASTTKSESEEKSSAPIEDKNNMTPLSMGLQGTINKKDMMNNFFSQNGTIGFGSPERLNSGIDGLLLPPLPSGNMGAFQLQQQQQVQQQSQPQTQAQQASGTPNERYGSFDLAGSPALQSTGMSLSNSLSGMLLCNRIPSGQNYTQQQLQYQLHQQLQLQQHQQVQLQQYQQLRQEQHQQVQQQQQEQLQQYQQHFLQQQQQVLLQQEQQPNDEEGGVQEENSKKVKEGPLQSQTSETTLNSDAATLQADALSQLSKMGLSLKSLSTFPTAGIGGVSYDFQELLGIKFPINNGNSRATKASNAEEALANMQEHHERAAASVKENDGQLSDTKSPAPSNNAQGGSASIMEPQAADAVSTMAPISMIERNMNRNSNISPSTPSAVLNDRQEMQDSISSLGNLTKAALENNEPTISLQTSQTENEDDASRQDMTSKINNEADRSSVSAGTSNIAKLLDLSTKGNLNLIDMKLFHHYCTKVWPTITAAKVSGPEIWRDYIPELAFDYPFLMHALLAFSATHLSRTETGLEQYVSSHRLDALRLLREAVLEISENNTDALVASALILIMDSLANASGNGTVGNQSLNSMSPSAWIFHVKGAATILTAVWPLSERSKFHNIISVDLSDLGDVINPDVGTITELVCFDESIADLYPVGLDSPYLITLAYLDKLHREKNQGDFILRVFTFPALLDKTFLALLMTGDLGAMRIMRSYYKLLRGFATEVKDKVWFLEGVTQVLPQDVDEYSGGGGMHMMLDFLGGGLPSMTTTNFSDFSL
# Assay: PBM E-score (8-mer binding enrichment) (E-score (-0.5 to 0.5)); higher = stronger / more preferred TF binding; most listed sequences are background and not binding sites
# Details: protein concentration: 200 nM; construct: GST-full length
# Procedure: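 Universal 'all 10-mer' protein binding microarrays (Agilent AMADID 015681) probed with GST-tagged S. cerevisiae TFs (full-length or DBD) made by in vitro transcription/translation (PURExpress), about 100-200 nM. Bound TF was detected with fluorescent anti-GST. Each ungapped 8-mer (which stands for itself and its reverse complement) is scored by the PBM enrichment score (E-score), a modified Wilcoxon-Mann-Whitney statistic from -0.5 to +0.5, computed with the Universal PBM Analysis Suite. Scale: above 0.35 generally sequence-specific binding.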
row,Sequence,PBM E-score
1,TACCATAA,-0.014
2,TACAATAA,-0.0294
3,GTGCCACA,-0.285
4,ATGTTGCA,0.0701
5,AAAGGTCA,-0.169
6,GGGTAGCA,-0.132
7,TCACCAGA,-0.157
8,CCCCGCTA,0.0753
9,GGTCGTTA,0.358
10,AGAGACCG,-0.0277
11,GCCCAATA,-0.0227
12,ATTGTCAC,-0.051
13,CCTAACCA,-0.0454
14,CTTGGAGC,-0.154
15,GCACCTCC,-0.269
16,CATGGAGC,-0.272
17,GCCGTATA,0.48
18,CATCCGAA,0.134
19,CGGCCGTC,-0.0655
20,CACTGCCC,-0.2
21,AGGCGGCG,0.0757
22,AAAGCGGA,-0.0717
23,ACCCCCGG,-0.192
24,GGAACACA,-0.0493
25,AAGAGCGC,-0.016

row,Sequence,PBM E-score
1,CGTTAAAA,0.364
2,ACTATCCC,-0.22
3,CGGGTAAG,0.112
4,GAGCGGCC,-0.106
5,ACAAGCGA,0.257
6,CCTGATAC,0.107
7,CAGTGTTC,-0.0765
8,AAATCTGT,-0.0429
9,AAAATAGT,-0.122
10,ATCTCGTC,0.123
11,CCACTGCG,-0.156
12,AGCCCAAG,-0.323
13,AAAGCGGT,-0.0185
14,ATGTTCGC,0.14
15,GATCTCTA,-0.0508
16,CCTTCGAC,-0.259
17,ACTTAACG,0.339
18,CACGCTGC,-0.122
19,CAAGAGGC,-0.278
20,AGGTCCAC,-0.151
21,ACACCTAG,-0.177
22,CGGCACGA,0.0717
23,CACCTATG,-0.0273
24,ACCTGTCA,-0.19
25,GCGTGCTA,-0.112

row,Sequence,PBM E-score
1,ATAGATGG,-0.18
2,CTGCTCTA,-0.0369
3,CATGTTCC,-0.133
4,GCTGCCTA,-0.0208
5,ACGGGTGC,0.133
6,AAATCTAC,-0.00285
7,CAATTATA,0.0724
8,CGCCTTTA,0.0401
9,CGGTAGTA,-0.0437
10,CCAGTCTA,-0.0148
11,GCTTGTGA,-0.246
12,AGTACTCC,0.0974
13,CGTCAGCA,-0.032
14,ACACGGGC,-0.0605
15,AATTTTCT,0.0525
16,AACAGTCT,-0.0247
17,GATCTAAC,0.0222
18,AATATATG,0.0125
19,CCCGCCAC,-0.047
20,AAAGGGCG,-0.1
21,TACGCCAA,0.223
22,CTTCGTCA,-0.0302
23,CGATACAC,0.0822
24,CGCCGAGA,-0.0496
25,ATAAATCC,-0.0278

row,Sequence,PBM E-score
1,CCCGATTC,-0.0726
2,AACAAAGT,0.0536
3,ATTTGAAC,0.0892
4,ACACTGAC,-0.0488
5,ACGAAGAC,0.26
6,CGCTCTGA,-0.0693
7,CCCCGGTC,-0.246
8,ACCGTTCG,0.22
9,CATCAGCA,-0.331
10,CGTGGCTA,-0.21
11,GATCCATC,0.0451
12,CATTGGGA,-0.0951
13,AATCAATA,0.0785
14,TGCCCCCA,-0.118
15,CCAGTTGC,-0.193
16,ATCATTAA,0.179
17,ACAGCGAA,0.0868
18,TGAGAGCA,-0.207
19,CCCCTCCG,0.0172
20,AACCAATA,-0.0564
21,AAGTGTTG,0.0948
22,AACGAACC,0.427
23,TACAGTCA,0.137
24,AACACACC,-0.00316
25,ATATTGCC,-0.0476

row,Sequence,PBM E-score
1,ACAAAGTA,0.21
2,AGTACATC,-0.0485
3,AGGCGCCC,-0.253
4,CGACAGTA,0.109
5,AGTAATAC,0.0139
6,AAAGTAAC,-0.0192
7,ACCTCTAG,-0.145
8,AGTGAATA,-0.102
9,GGCGCAAC,0.00488
10,ACGCCCAA,-0.00096
11,CGGCTGGA,-0.122
12,CAAGCTCC,-0.326
13,AACTGTGC,-0.209
14,GTGCACTA,0.0718
15,GCTGTCAA,0.0108
16,AAGGAAGG,-0.0469
17,TCAGAACA,-0.064
18,CACTAGTC,-0.267
19,CCCACGGG,-0.203
20,ACCAGTGC,-0.0356
21,AAGTGAGT,-0.195
22,CGGTAAGA,0.0772
23,TAAGTATA,0.219
24,ATAGACCA,0.0797
25,TCCCCAGA,-0.22

row,Sequence,PBM E-score
1,ATCACCGA,-0.0665
2,GCGAGTAA,0.0944
3,CATTGCGC,-0.113
4,GGCACCAC,-0.158
5,AATTCCCT,-0.147
6,AGGGCAGA,-0.387
7,ACCCTGGA,-0.0506
8,TCTACCAA,-0.13
9,ATCGAGCG,0.147
10,CCCTGTCA,-0.229
11,GGTTGTTA,0.101
12,CGAACCAG,0.123
13,AATGCAAT,-0.103
14,AATCGGAT,0.235
15,CCAGTCGA,-0.00559
16,GGGAACGA,0.466
17,AGTCTTCG,0.0756
18,GATCTACA,-0.172
19,ACAGACCT,0.0499
20,ACGGTTGA,0.133
21,AGTACCCG,0.135
22,AAAATTCA,0.105
23,CAAAGGTC,-0.212
24,CATCAAAC,0.0608
25,GGGTTGGA,-0.107

row,Sequence,PBM E-score
1,CAGTGGGA,-0.121
2,AGTAAGAT,-0.0269
3,AACTCTCA,-0.0535
4,CTCCTGGC,-0.201
5,GACTGGAA,-0.0501
6,CCCACAAA,-0.0777
7,CTTACGGA,0.104
8,CGGAGAAG,-0.249
9,AAATAGTG,-0.0513
10,CTCTAGCC,-0.122
11,ATCCAGGC,-0.276
12,GGAAGCCC,-0.0929
13,CGCGTTGA,0.0434
14,CCGAAGAC,0.0104
15,CGATATAC,0.308
16,GGTCCCTA,-0.167
17,ACCGGAGA,-0.0818
18,GCCCTCAA,-0.144
19,CTGTCGTA,0.447
20,CTCGCCGC,-0.109
21,CGTAGAGA,0.274
22,AACCCGAG,0.169
